# From publication PMC4336329 (PLoS ONE, 2015)
# Among all 310,000 compounds or so, about 2,200 (0.71%) showed an effect of 50% or more. Effects have a minus sign here. The list shows a part of the results.
# Target: human ether-à-go-go-related gene (hERG) potassium channel (human, UniProt Q12809)
# Assay: primary screen, population patch clamp on CHO cells stably expressing hERG
# Chain of human ether-à-go-go-related gene (hERG) potassium channel (Q12809 whole entry, looked up): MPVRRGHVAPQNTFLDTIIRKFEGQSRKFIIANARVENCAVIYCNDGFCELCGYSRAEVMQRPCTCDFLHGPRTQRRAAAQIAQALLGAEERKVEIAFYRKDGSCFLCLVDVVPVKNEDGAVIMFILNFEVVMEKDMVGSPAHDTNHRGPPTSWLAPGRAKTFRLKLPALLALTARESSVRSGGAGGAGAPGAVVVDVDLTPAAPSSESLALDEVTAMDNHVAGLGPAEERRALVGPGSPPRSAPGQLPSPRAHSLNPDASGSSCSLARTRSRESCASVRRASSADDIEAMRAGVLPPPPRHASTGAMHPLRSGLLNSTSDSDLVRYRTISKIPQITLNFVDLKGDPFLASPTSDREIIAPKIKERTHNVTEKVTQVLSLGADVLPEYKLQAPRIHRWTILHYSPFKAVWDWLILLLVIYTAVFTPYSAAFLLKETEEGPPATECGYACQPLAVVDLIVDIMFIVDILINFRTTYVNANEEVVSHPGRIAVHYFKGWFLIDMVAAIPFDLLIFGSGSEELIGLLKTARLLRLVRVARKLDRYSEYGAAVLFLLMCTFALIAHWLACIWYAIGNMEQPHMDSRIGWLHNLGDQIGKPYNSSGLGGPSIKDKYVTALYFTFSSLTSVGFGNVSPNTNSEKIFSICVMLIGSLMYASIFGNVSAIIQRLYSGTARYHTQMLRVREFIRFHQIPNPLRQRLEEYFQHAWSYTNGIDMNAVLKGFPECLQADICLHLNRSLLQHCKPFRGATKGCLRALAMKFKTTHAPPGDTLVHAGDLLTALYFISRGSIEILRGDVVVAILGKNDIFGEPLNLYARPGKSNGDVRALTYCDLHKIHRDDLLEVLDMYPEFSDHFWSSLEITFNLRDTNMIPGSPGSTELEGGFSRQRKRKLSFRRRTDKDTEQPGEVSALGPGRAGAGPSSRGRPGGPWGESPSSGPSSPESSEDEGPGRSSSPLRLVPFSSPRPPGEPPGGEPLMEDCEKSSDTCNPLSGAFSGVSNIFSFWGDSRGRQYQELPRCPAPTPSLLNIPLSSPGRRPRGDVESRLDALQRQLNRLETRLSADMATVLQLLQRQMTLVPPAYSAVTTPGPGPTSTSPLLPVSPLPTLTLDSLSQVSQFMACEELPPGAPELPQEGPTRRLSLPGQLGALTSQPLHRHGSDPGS
row,Structure (SMILES),"hERG current change (%, negative = inhibition) at 1uM [%]"
1,CSCCC(NC(=O)COc1ccccc1)C(=O)N(C)Cc1cccc(F)c1 (stereo not shown),7.07
2,O=C(/C=C/c1ccc(F)cc1)N1CCCN(C(=O)/C=C/c2ccc(F)cc2)CC1,-84.7
3,COc1ccc(OC)c(NC(=O)CN2C(=O)NC3(CCCc4ccccc43)C2=O)c1 (stereo not shown),6.31
4,O=C(C1=C(O)C(=O)N(CCN2CCOCC2)C1c1cccc(F)c1)c1cc2ccccc2o1 (stereo not shown),9.08
5,COc1ccc(/C(N)=N/OC(=O)c2ccc(Br)o2)cc1,13.6
6,Cn1c(Cn2nnc3ccccc32)nnc1SCC(=O)c1ccccc1F,0.528
7,Cc1cc(S(=O)(=O)N2CCOCC2)ccc1OCC(=O)Nc1ccccc1C(F)(F)F,12.3
8,CCNC(=O)N1C(=O)C2(OCCO2)c2cc(Br)ccc21,17
9,CCCCSCCCNC(=O)c1ccc(CS(=O)(=O)c2ccccc2OC)o1,4.94
10,O=C(O)c1ccc2c(c1)C(=O)N(c1ccc(Nc3ccccc3)cc1)C2=O,12.7
11,Cc1cc2oc(=O)cc(CN3CCOCC3)c2cc1O,3.59
12,CC(C)(C)NS(=O)(=O)CC12CCC(CC1=O)C2(C)C (stereo not shown),9.92
13,CCN(CC)S(=O)(=O)c1ccc(N/N=C(\C)c2cccnc2)nc1,5.53
14,FC(F)(F)c1cc(-c2cccs2)nc2cc(-c3ccccc3)nn12,0.818
15,O=C(N/N=C/c1ccoc1)c1ccc(Cl)cc1Cl,14.5
16,Cc1ccc(Oc2cc(NC(=O)CCCn3nc([N+](=O)[O-])cc3C)cc([N+](=O)[O-])c2)cc1,13.4
17,CC(C)(CNC(=O)c1ccc(-c2ccccc2Cl)o1)N1CCOCC1,-5.93
18,CCC(=O)Nc1cccc(NC(=O)CSc2nnc(C(C)C)n2CC)c1,-3.14
19,CCCc1[nH]nc2c1C(c1ccc(OC)c(Cn3nnc4ccccc43)c1)C(C#N)=C(N)O2 (stereo not shown),3.53
20,COc1ccc(Oc2ccc(/C=N/NC(=O)c3cccnc3)cc2[N+](=O)[O-])cc1,9.93
21,CCCn1c(NCc2ccc(N(C)C)cc2)nc2ccccc21,-14
22,O=C(Nc1ccccc1)NC1CCCCCCC1,5.86

row,Structure (SMILES),"hERG current change (%, negative = inhibition) at 1uM [%]"
1,O=[N+]([O-])c1ccc(O)c(/C=N/n2c(-c3ccccc3)n[nH]c2=S)c1,18.6
2,CCCc1cc(=O)n2c(nc3ccccc32)[nH]1,16.1
3,Cc1ccc(C2/C(=C(\O)c3c(C)nc4ccccn34)C(=O)C(=O)N2CCN(C)C)o1 (stereo not shown),5.74
4,O=C(Cn1cnc2ccccc21)NC(c1ccccc1)c1ccccc1,8.43
5,CN(C)CC1CCCCC1OC(=O)c1ccc(Cl)cc1Cl.Cl (stereo not shown),-11.9
6,COc1ccc2nc(SCC(=O)Nc3ccc4sc(C)nc4c3)c(C#N)cc2c1,14.7
7,Cc1cc(C)n(Cc2ccc(NC(=O)c3nn(C)cc3[N+](=O)[O-])cc2)n1,5.95
8,O=C1/C(=C/c2ccc(F)c(F)c2)CSc2sccc21,9.32
9,Cc1ccc(S(=O)(=O)c2nc(S(=O)(=O)c3ccccc3)sc2N2CCN(C)CC2)cc1,-2.65
10,Cc1cc2oc3c(c(=O)c2cc1C)C(c1cccc(Br)c1)N(Cc1ccco1)C3=O (stereo not shown),15.4
11,O=C(CSc1ccccc1)Nc1ccc(S(=O)(=O)Nc2ncccn2)cc1,-2.53
12,Cc1cc(NC(=O)c2ccno2)no1,5.82
13,NC(=O)/C(=N\OC(=O)c1ccco1)c1nc(-c2ccc(Br)cc2)cs1,2.53
14,CCOC(=O)C1=C(C)NC(C)=C(C(=O)OCC)C1C(=O)OCC(=O)N1CCc2ccccc2C1,10.9
15,Cc1ccc(-n2c(=O)c3c4c(sc3n(Cc3cc(=O)n5ccccc5n3)c2=O)CCC4)cc1C,-1.08
16,COc1ccc(-c2nc3c(c(SCC(=O)N4CCOCC4)n2)COC(C)(C)C3)cc1,0.065
17,Nc1nonc1-n1nnc(C(=O)c2ccccc2)c1-c1ccccc1,11.9
18,Cc1c(Cl)cccc1NC(=S)Nc1ccccn1,8.87
19,O=C(Nc1ccc(F)c(Cl)c1)c1ccccc1,17
20,NS(=O)(=O)c1ccc(-n2nncc2C23CC4CC(CC(C4)C2)C3)cc1,8.1
21,Cn1c(NC(=O)C2CCCC2)cc(=O)n(C)c1=O,11.2
